According to PubChem BioAssay AID1347073 (National Center for Advancing Translational Sciences (NCATS), 2019):
The whole screen tested about 45,000 compounds, of which about 200 (0.44%) were called active. About 7% were inconclusive and are not listed. Calls follow the shape of the dose curve; as a rule, active = well fitted activation curve with a large enough effect; inconclusive = small, poorly fitted or top-dose-only effect; inactive = no such curve, though single readings can be large or run the other way. Some of the results follow.

Test: qHTS of TDP-43 Inhibitors: NCGC Sytravon Library Screen; also: 0% is about no effect; nearly all actives have a fitted effect of over 55% in size
Conditions: yeast TDP-43 toxicity rescue, BacTiter-Glo growth, 24 h; series mostly up to 46.1 µM; growth rescue (activation): at the top concentration
Method in brief: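 TDP-43-expressing yeast, pregrown in raffinose, seeded at OD600 0.02 in galactose medium with compound for 24 hr at 30 deg C. Growth read by BacTiter-Glo luminescence, so rescue of toxicity appears as activation.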

| Structure (SMILES) | growth rescue (activation) |
| --- | --- |
| Fc1ccccc1COc1ccc(Br)cc1CNCc1cccnc1 | inactive: -1.67% |
| COc1ccc(NCC(=O)N/N=C(\C)c2cc3ccccc3o2)cc1 | inactive: 18.1% |
| O=C(COc1ccccc1Cl)Nc1ccc(C(=O)c2ccc(C(=O)O)cc2)cc1 | inactive: 11.3% |
| COc1ccc(CCN(C(=O)c2ccco2)C(C(=O)NC2CCCC2)c2ccncc2)cc1OC (stereo not drawn) | inactive: -1.92% |
| CCc1nc(=O)c(-c2ccccc2)c(C)n1-c1ccccc1 | inactive: -7.94% |
| O=C(O)c1ccc(-n2nnnc2SCc2cccc(Br)c2)cc1 | inactive: 3.24% |
| CCc1ccc(/C=N/NC(=O)c2cc(-c3cccc([N+](=O)[O-])c3)n[nH]2)cc1 | inactive: 0.729% |
| O=C(Nc1ccccc1C(F)(F)F)c1cc(-c2ccco2)on1 | inactive: -9.5% |
| CCn1cc(C(=O)N2CCCC(C(=O)c3ccc4ccccc4c3)C2)cn1 (stereo not drawn) | inactive: 27.8% |
| Cc1ccccc1N(C(=O)c1snc(C(N)=O)c1N)C(C)C(=O)NC1CCCCC1 (stereo not drawn) | inactive: 7.13% |
| CCC(C)(C#CCN1CCCCC1)OCCC#N (stereo not drawn) | inactive: 8.56% |
| Cc1nc2ccc(S(=O)(=O)N3CCCCC3)cc2s1 | inactive: 1.14% |
| Oc1ccc2ccccc2c1CN1CCOCC1 | inactive: 20.2% |
| Cc1cc(C)cc(N(CCC(=O)O)S(=O)(=O)c2ccc(Cl)cc2)c1 | inactive: 7.05% |
| Cc1ccc2[nH]c3c(=O)[nH]ncc3c2c1 | inactive: -3.32% |
| CCOc1ccc(-n2c(SCC(=O)NCc3ccco3)nc3ccccc3c2=O)cc1 | inactive: 9.04% |
| NS(=O)(=O)c1cccc(NC(=O)CSc2nnnn2-c2ccccc2)c1 | inactive: -4% |
| O=C(Nc1cccc(S(=O)(=O)N2CCCC2)c1)c1cc(-c2ccccn2)nc2ccccc12 | inactive: -5.6% |
| COc1cccc(NC(=O)N2C3CCCC2CC(NC(=O)C2CC2)C3)c1 (stereo not drawn) | inactive: -20.9% |
| O=C(O)/C=C/c1ccc(S(=O)(=O)NCc2ccco2)cc1 | inactive: 9.51% |
| CCOc1ccc(C(=O)Nc2nc(C)c(C(=O)OC)s2)cc1 | inactive: 10% |
| Cc1ccc(S(=O)(=O)CC(=O)Nc2nnc(C(C)C)s2)cc1 | inactive: 1.04% |

| Structure (SMILES) | growth rescue (activation) |
| --- | --- |
| CC(C)=C(NC(=O)c1ccccc1)C(=O)NCc1ccccc1 | inactive: 0.936% |
| NC(c1csc(Nc2ccc(C(=O)NCCCO)cn2)n1)c1ccccc1Cl (stereo not drawn) | inactive: -3.17% |
| O=C(N/N=C/c1cccnc1)c1cccs1 | inactive: -18.1% |
| O=C(NCC1CC1)c1ccc(-n2ccnc2)c2ccoc12 | inactive: 6.58% |
| CC(=O)NC(Cc1cccc(F)c1)C(=O)NC1CCN(C(=O)c2ccc(C)cc2)CC1 (stereo not drawn) | inactive: 9.7% |
| CC(C)CCN1C(=O)c2ccccc2CC1(C)C(=O)NC1CCC(C)CC1 (stereo not drawn) | inactive: 1.26% |
| CCn1c(=O)c([N+](=O)[O-])c(NCCc2ccc(OC)c(OC)c2)c2ccccc21 | inactive: 1.59% |
| O=C1/C(=C\c2ccccc2Cl)SC(=S)N1CCC(=O)N1CCCc2ccccc21 | inactive: 28.3% |
| CCN(CC)C(=O)CSC1=C(C#N)C(c2ccco2)C(C(=O)OCCOC)=C(C)N1 (stereo not drawn) | inactive: 19.1% |
| CCNc1nc(NC(C)C)nc(N(n2cnnc2)S(=O)(=O)c2ccc(C)cc2)n1 | inactive: 7.02% |
| Cc1cc2cc(CN(Cc3ccco3)C(=O)NCc3ccccc3)c(=O)[nH]c2cc1C | inactive: 24.6% |
| Cc1ccc(NC(=O)CN2CCN(C(=O)c3ccco3)CC2)cc1 | inactive: -9.25% |
| O=C(CNS(=O)(=O)c1ccc(Br)s1)NCc1ccccc1 | inactive: -11.5% |
| CC(C)C(NC(=O)/C=C/c1cccc([N+](=O)[O-])c1)C(C)C | inactive: 3.59% |
| COc1cccc(C(=O)Nc2nnc(Cc3ccc(OC)c(OC)c3)s2)c1 | inactive: 1.92% |
| CCC(C)(C)NC(=O)c1ccccc1Oc1ccccc1 | inactive: 1.35% |
| Cc1ccc(N(CC(=O)NCCSc2ccccn2)S(=O)(=O)c2ccc(F)cc2)cc1 | inactive: 5.41% |
| COc1cc(/C=C2\CC/C(=C\c3cc(OC)c(O)c(OC)c3)C2=O)cc(OC)c1O | inactive: -22.2% |
| Cc1ccccc1NC(=S)N(CCCN1CCOCC1)Cc1cccnc1 | inactive: -6.18% |
| Cc1cccc(NCC(=O)N/N=C\c2cccn2C)c1 | inactive: 1.02% |
| O=C1/C(=C\c2ccc(O)c(O)c2)C(c2ccccc2)=NN1c1ccccc1 | inactive: 7.55% |
| O=[N+]([O-])c1ccccc1S(=O)(=O)N(CC(O)CN1CCCCC1)c1ccccc1 (stereo not drawn) | inactive: -7.91% |

| Structure (SMILES) | growth rescue (activation) |
| --- | --- |
| CC(=O)N(CCCCl)C(C#N)c1ccccc1 (stereo not drawn) | inactive: 15.6% |
| Cc1cc(C)n(-c2nc(SCC(=O)O)c3c4c(sc3n2)COC(C)(C)C4)n1 | inactive: 9.26% |
| C=CCn1cc(F)c(=O)n(CC=C)c1=O | inactive: 7.98% |
| COCCNC(=O)C1(C)CCCN(Cc2ccc(OCc3ccccc3)cc2)C1 (stereo not drawn) | inactive: 11.8% |
| CCS(=O)(=O)c1nn2c(N)c(/C=C3/C=CC(=O)C(OC)=C3)c(=O)nc2s1 | inactive: 11.8% |
| CCOC(=O)N1CCN(C(=O)C2CCC(=O)N(Cc3cccc(C(F)(F)F)c3)C2)CC1 (stereo not drawn) | inactive: 11.2% |
| Cc1cc2c(cc1C)C(c1cccc([N+](=O)[O-])c1)CC(=O)N2 (stereo not drawn) | inactive: 27.7% |
| Cc1ccccc1C(=O)NC1CCN(CC(=O)Nc2ccc(Br)cc2)CC1 | inactive: -0.646% |
| CC(=O)c1ccc(NC(=O)c2ccc3c(c2)C(=O)N(c2ccccn2)C3=O)cc1 | inactive: -4.84% |
| O=C(Nc1ccn(Cc2ccc(F)cc2)n1)c1ccncc1 | inactive: 21.9% |
| Cc1cc(C)n2nc(C(=O)OCC(=O)N(CC(C)C)C3CCS(=O)(=O)C3)nc2n1 (stereo not drawn) | inactive: 1.59% |
| CC1CC(C)CN(C(=O)CCNC(=O)Cn2ccc3ccccc3c2=O)C1 (stereo not drawn) | inactive: 8.26% |
| CC1CCN(S(=O)(=O)c2ccc(C(=O)N3CCN(c4ccccc4F)CC3)cc2)CC1 | inactive: -1.85% |
| COc1ccc(Cc2noc(CN(C)C3CC(C)(C)NC(C)(C)C3)n2)cc1OC | inactive: 10.3% |
| CCCCOP(=O)(OCCCC)C(O)c1ccc(N(C)C)cc1 (stereo not drawn) | inactive: -7.23% |
| O=C(NCCN1CCOCC1)c1cc(Sc2cccc(Cl)c2)nc2ccccc12 | inactive: -9.52% |
| CNc1ccccc1C(C)(C)c1cc(-c2cccc(Br)c2)no1 | inactive: 4.16% |
| CCN(CC1COc2ccccc2O1)S(=O)(=O)c1ccc(C)cc1 (stereo not drawn) | inactive: 4.73% |
| COc1ccc(/C(C)=N/NC(=O)CNC(=O)c2cccnc2)cc1 | inactive: 10% |
| NC1=NC(=O)/C(=C/c2cn(Cc3ccccc3)c3ccccc23)S1 | inactive: -3.37% |
| CCOC(=O)c1nnn(-c2nonc2N)c1CSc1nnc(N)s1 | inactive: 5.46% |
| COc1ccc(NC2CCCN(C(=O)COc3ccc(C)cc3)C2)cc1 (stereo not drawn) | inactive: 15% |

| Structure (SMILES) | growth rescue (activation) |
| --- | --- |
| CC1=Nc2cc(C(=O)NCCCOC(C)C)ccc2Sc2ccccc21 | inactive: 12.7% |
| Cc1ccc(-c2noc(CCC(=O)NC3CC3)n2)cc1 | inactive: 20.9% |
| Cc1ccc(S(=O)(=O)/N=C2/NC(=O)/C(=C/c3ccccn3)S2)cc1 | inactive: 28.3% |
| CNC(=S)NC1CC2CCCC(C1)N2Cc1ccc(C)cc1 (stereo not drawn) | inactive: 1.54% |
| CCN1CCN(c2cc3c(nn2)Oc2ccccc2N3C)CC1 | inactive: 3.93% |
| COc1cc(NC(=O)COc2ccc(-n3cnnn3)cc2)cc(OC)c1OC | inactive: -5.65% |
| COc1ccc(-c2noc(CCCC(=O)Nc3cccnc3)n2)cc1OC | inactive: 5.77% |
| O=C(Nc1nc(OCC(F)(F)F)cnc1/C=C\c1ccccc1)c1ccccc1 | inactive: -8.95% |
| Cc1ccc(NC(=S)N2CCC(NC(=O)c3ccccc3)CC2)cc1 | inactive: -2.82% |
| CN(C)Cc1c(O)ccc2c(-c3ccccc3)cc(=O)oc12 | inactive: 10.5% |
| COCCOC(=O)c1c(NC(=O)CNCc2ccco2)sc(C(N)=O)c1C | inactive: 15.2% |
| O=C(COC(=O)/C=C/c1cccc(Cl)c1)Nc1ccc(N2CCOCC2)cc1 | inactive: 17% |
| CC(C)CNC(=O)CCc1c[nH]c2ccccc12 | inactive: -16.4% |
| CC(=O)c1sc(NC(=O)COc2ccc([N+](=O)[O-])cc2)nc1C | inactive: -0.691% |
| COc1ccc(/C=N/NC(=O)c2ccc3c(c2)NC(=O)C(C)(C)O3)cc1OC | inactive: 16.5% |
| CCSc1nsc(NC(=O)Nc2cccc(F)c2)n1 | inactive: -2.5% |
| CC(C(=O)Nc1ccccc1)N(C)CCOc1ccc(Br)cc1 (stereo not drawn) | inactive: 26.7% |
| CN(C)c1cccc(C(=O)NNC(=O)CN2C(=O)C3CC=CCC3C2=O)c1 (stereo not drawn) | inactive: 10.8% |
| Nc1nc(SCC(=O)NNc2c(Cl)cc(Cl)cc2Cl)n[nH]1 | inactive: -8.92% |
| O=C(O)c1ccc(N2CCCS2(=O)=O)cc1 | inactive: 0.673% |
| CCOc1ccccc1Nc1cc(C)c2cccc(C)c2n1 | inactive: 14.8% |
| COc1ccc(C(=O)OCC(=O)N2C(C)CCCC2C)cc1[N+](=O)[O-] (stereo not drawn) | inactive: 13.6% |

| Structure (SMILES) | growth rescue (activation) |
| --- | --- |
| O=C(CCSCCc1ccccn1)Nc1ccccn1 | inactive: -3.54% |
| CS(=O)(=O)Nc1ccccc1C(=O)OCC(=O)NCc1cccs1 | inactive: -1.64% |
| Cc1ccc(-n2c(-c3ccncc3)n[nH]c2=S)cc1 | inactive: 5.09% |
| CC1CCC(NC(=O)CCCCn2c(=O)[nH]c3ccsc3c2=O)CC1 (stereo not drawn) | inactive: -15.2% |
| COc1ccc(C(=O)O)cc1S(=O)(=O)N1CCN(Cc2ccc3c(c2)OCO3)CC1 | inactive: -13% |
| CCOC(=O)C1=C(C)NC(C)=C(C(=O)OCC)C1C(=O)OCC(=O)N1CCCCC1CC (stereo not drawn) | inactive: 4.35% |
| Cc1cccc(NC(=O)NC2(C)CCS(=O)(=O)C2)c1 (stereo not drawn) | inactive: 18.3% |
| O=C(CCS(=O)(=O)c1ccccc1)Nc1ccccn1 | inactive: 10.7% |
| Cc1ccc(NC(=O)CN(C)Cc2c(O)ccc3ccccc23)cc1 | inactive: 21.6% |
| COc1ccc(CCNC(=S)NC2CCN(Cc3ccccc3)CC2)cc1 | inactive: -12.3% |
| CCOC(=O)c1sc2nc(C)nc(NCCc3ccc(S(N)(=O)=O)cc3)c2c1C | inactive: 1.02% |
| O=C1C(c2cc(=O)c3ccccc3[nH]2)=C(O)c2ccccc21 | inactive: -21.4% |
| N/C(=N\c1nc2ccccc2o1)NC(=O)c1ccccc1Br | inactive: 14% |
| CCCc1cc(=O)[nH]c(SCC(=O)Nc2ccc(C(=O)Nc3ccccc3OC)cc2)n1 | inactive: 17% |
| Cc1ccc(N(C(=O)c2csnn2)C(C(=O)NC2CCCCC2)c2ccccn2)c(C)c1 (stereo not drawn) | inactive: 13.9% |
| CCc1ccc(C2c3[nH]c4ccccc4c3CCN2C(=O)CN2CCN(CC)CC2)cc1 (stereo not drawn) | inactive: -2.62% |
| O=C(Cn1c(=O)oc2cc(S(=O)(=O)N3CCCC3)ccc21)Nc1cccc(C(F)(F)F)c1 | inactive: 9.88% |
| Cc1ccc(S(=O)(=O)N(C)CC(=O)N2CCC(C(N)=O)CC2)cc1 | inactive: -14.6% |
| CCc1noc(C)c1C(=O)OCC(=O)c1ccc(NC(C)=O)cc1F | inactive: -20.7% |
| O=C(CN(C(=O)CNC(=O)c1ccco1)c1ccc(F)cc1)NC1CCCCC1 | inactive: -1.22% |
